About 800 (1.6%) of roughly 50,000 compounds showed an effect of 50% or more. The list shows a part of the results.
biological target: Bcl-2-like protein 10 (Homo sapiens) (UniProt Q9HD36); test: TR3 peptide-Bcl-B binding displacers, biochemical primary FP assay, phenotype converters (AID 1240); conditions: GST-Bcl-B / FITC-TR3 peptide fluorescence polarization; stronger effect = higher value; compound at 3.75 mg/L;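 also: 0% = Bcl-B with tracer peptide and DMSO and 100% = tracer peptide lacking Bcl-B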
UniProt Q9HD36, sequence (Q9HD36 whole entry, looked up): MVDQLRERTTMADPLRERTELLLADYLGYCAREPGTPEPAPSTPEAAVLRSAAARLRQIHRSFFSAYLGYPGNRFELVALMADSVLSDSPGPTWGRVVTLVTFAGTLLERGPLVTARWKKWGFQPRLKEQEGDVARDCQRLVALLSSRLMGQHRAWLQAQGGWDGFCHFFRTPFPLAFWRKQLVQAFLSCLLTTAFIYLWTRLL

Row | Compound | displacement [%]
1 | COc1cc(NC(=O)c2cc(Cl)ccc2OC)c(OC)cc1Cl | -1.9
2 | Cc1occc1C(=O)Nc1cccc(O)c1 | 2.5
3 | CCOc1cc(OCC)cc(C(=O)Nc2cc3nn(-c4ccc(OC)cc4)nc3cc2C)c1 | 8.8
4 | COc1cc(OC)c(OC)cc1CN1CCN(C2CCCC2)CC1 | 5
5 | O=c1ccc([N+](=O)[O-])ccc1Nc1ccccn1 | 58.1
6 | O=C(/C=C/c1ccccc1OC(=O)c1cccnc1)c1ccccc1 | -10.4
7 | CCOc1ccccc1NS(=O)(=O)c1ccc(OC)c(OC)c1 | -10.6
8 | O=C(NC(=S)N1CCCc2ccccc21)c1ccc([N+](=O)[O-])cc1 | 19.6
9 | O=S(=O)(Nc1ccc(O)cc1)c1cc(Cl)ccc1Cl | -0.2
10 | CC(=O)C1=C(O)C(=O)N(CCN2CCNCC2)C1c1ccc(Br)cc1 (stereo not given) | 3
11 | CCCc1ccc(OCC(=O)Nc2ccc(N3CCOCC3)cc2)cc1 | 4.4
12 | O=C(CC1(C(F)(F)F)NN=C(c2ccccc2)S1)c1ccccc1 (stereo not given) | -15.6
13 | CCOC(=O)C1=C(C)NC2=C(C(=O)CCC2)C1c1cccc(Cl)c1 (stereo not given) | 1.2
14 | CCCCN(C)Cc1c(C)[nH]c2c(ccc3ccccc32)c1=O | 9.7
15 | COc1cc(NC(=O)COc2ccc(Br)cc2)ccc1NC(=O)c1ccco1 | -10.4
16 | O=C(COc1ccc2ccccc2c1)Nc1ccc(Br)c(Cl)c1 | -0.5
17 | COc1ccc(NS(=O)(=O)c2ccc(NC(=S)NC(=O)c3sc4cc(F)ccc4c3Cl)cc2)nn1 | 9.5
18 | Cc1nn(-c2ccc(I)cc2)c(C)c1-c1cccc([N+](=O)[O-])c1 | 14.2
19 | OC(Cc1ccc2ccccc2n1)C(Cl)(Cl)Cl (stereo not given) | -5.5
20 | O=[N+]([O-])c1ccc2c(c1)S(=O)(=O)N=C2N1CCCCC1 | -7.3
21 | O=C(/C=C/c1ccccc1)Nc1ccc(S(=O)(=O)N2CCCC2)cc1 | -6.4
22 | COc1cc(NC(=O)c2cc3n(n2)C(C(F)(F)F)CC(c2ccc(Cl)cc2)N3)cc(OC)c1OC (stereo not given) | 3.9

Row | Compound | displacement [%]
23 | O=C1NC(=O)N(c2ccc(Br)cc2)C(=O)/C1=C/c1cccc(O)c1 | 6
24 | COc1ccc(N=C(C)C2=C(O)CSC2=O)cc1 | -2.1
25 | CCC(=O)Nc1cccc(-c2nc3cc(Cl)ccc3o2)c1C | -34.7
26 | O=[N+]([O-])c1ccc(C2CNC(c3ccccc3O)O2)cc1 (stereo not given) | 0.4
27 | Cc1ccc2c(c1)NC(c1cccs1)C1=C(CC(c3ccccc3)CC1=O)N2 (stereo not given) | 2.7
28 | COC(=O)c1cc(NC(=O)S(=O)(=O)c2ccc(C)cc2)cc(C(=O)OC)c1 | 2
29 | COc1cc(C(=O)Nc2ccc(Oc3ccc(NC(=O)c4cc(OC)c(OC)c(OC)c4)cc3)cc2)cc(OC)c1OC | -3
30 | O=S1(=O)C=CC(Nc2cccc(C(F)(F)F)c2)C1 (stereo not given) | 14
31 | CCOC(=O)c1ccc(N2NC(=O)/C(=C/c3ccc(O)c(OCC)c3)C2=O)cc1 | 12.4
32 | COc1cccc(OC)c1C(=O)Nc1ccc(C(=O)Oc2ccccc2)c(O)c1 | -9.1
33 | CC(=O)N1CCN(Cc2ccccc2)CC1 | 3.8
34 | Cc1ccc([N+](=O)[O-])cc1-c1[nH]c(-c2cccc(O)c2)nc1-c1ccccc1 | -1.6
35 | Cc1ccc(OCC(=O)Nc2cccc3nsnc23)c(C)c1 | 26.1
36 | O=C(Nc1ccc(N2CCCCC2)c(Cl)c1)c1cccc2ccccc12 | 21.2
37 | COc1ccc(C(=O)Nc2nnc(Cc3ccc(OC)c(OC)c3)s2)cc1 | -0.5
38 | O=C(Nc1cccc2ccccc12)c1cnccn1 | 8.4
39 | O=C(c1ccco1)N(Cc1ccccc1)c1cccc([N+](=O)[O-])c1 | 1.4
40 | CC(C)(C)c1ccc(-c2nnc(NC(=O)Nc3ccccc3)s2)cc1 | 24.1
41 | CCOC(=O)c1c(NC(=O)c2cccc(OC)c2)sc(C(=O)Nc2ccccc2OC)c1C | -4.4
42 | COc1ccc(C(=O)N2CCCc3ccccc32)cc1OC | -3.3
43 | COc1ccc(OC)c(/C=C2\C(=O)N(c3ccc(S(N)(=O)=O)cc3)N=C2C)c1 | 2.4
44 | COc1ccc(S(=O)(=O)N(CC(=O)NCCc2ccccc2)Cc2ccccc2)cc1 | -0.6

Row | Compound | displacement [%]
45 | CS(=O)(=O)N(Cc1ccc(C(=O)Nc2ccc(F)c(Cl)c2)cc1)c1ccccc1 | 5.2
46 | C=CCn1c(SCC(=O)N2c3ccccc3C(C)(c3ccccc3)CC2(C)C)nnc1-c1ccncc1 (stereo not given) | 1.9
47 | Cc1cc(C)c(-n2c(O)c(/C=C3\C=Nc4ccccc43)c(=O)[nH]c2=O)c(C)c1 | -4.1
48 | Cc1ccc(N2C(=O)CC(NCCc3ccccn3)C2=O)cc1 (stereo not given) | 0.1
49 | COc1ccc(-c2c(C)n([O-])c3c([n+]2=O)CCC3)cc1 | 3
50 | CCOc1ccc(C(=O)Nc2ccc(I)cc2Cl)cc1[N+](=O)[O-] | -4.5
51 | c1ccc(OCCN2CCN(c3ncnc4c3cnn4-c3ccccc3)CC2)cc1 | -14.9
52 | CC1=NN(c2ccccc2)C(=O)/C1=C/c1ccc(-c2ccc(C(=O)O)cc2)o1 | 15.9
53 | Cc1ccc2c(Cl)c(C(=O)NCC3CCCO3)sc2c1 (stereo not given) | -20.5
54 | COc1ccc(S(=O)(=O)Nc2cccnc2)cc1 | 13
55 | COc1ccc(-n2cnc3c(sc4nccc(N(C)C)c43)c2=O)cc1 | -25.5
56 | Cc1ccc2nc(-c3sc(=S)n(-c4ccccc4)c3N)[nH]c2c1 | -38.4
57 | O=[N+]([O-])c1cccc(C2N(c3ccccc3)CCN2c2ccccc2)c1 | -4.1
58 | O=C(NNc1nc(-c2ccccc2)c2cc(Cl)ccc2n1)c1ccc(Cl)cc1Cl | 13.6
59 | Fc1ccccc1OCCCCCCN1CCCC1 | 15.9
60 | COC(=O)c1sccc1NC(=O)c1ccccc1C | -13.5
61 | O=[N+]([O-])c1ccc(NCCCNS(=O)(=O)c2ccccc2)cc1 | 9.8
62 | Cc1ccc(N2C(=O)CC(N3CCOCC3)C2=O)cc1 (stereo not given) | 6
63 | O=C1C(=O)N(CN2CCCCC2)C2C=CC=CC12 (stereo not given) | 17.2
64 | O=C1C/C(=C/NCc2ccccc2)C(=O)N1 | 9.6
65 | O=C1CNC(=O)c2c(ncn2Cc2ccccc2)N1 | -13.2
66 | COc1ccc(C2(CCN)CCOC(C)(C)C2)cc1 (stereo not given) | -7.2

Row | Compound | displacement [%]
67 | C=C(C)CSc1nnc2nc(C)cc(C)n12 | 2.9
68 | CCOC(=O)c1ccccc1NC(=O)C(C)Oc1ccccc1 (stereo not given) | 13.1
69 | O=[N+]([O-])c1cc2c(c([N+](=O)[O-])c1)Nc1ccccc1N=C2c1ccc(Br)cc1 | -7.1
70 | CCN1C(=O)/C(=C/c2cccc(OC(F)(F)C(F)F)c2)SC1=S | 14.1
71 | N#Cc1ccccc1NC(=O)COc1ccccc1 | 14.4
72 | C=CCn1c2ccccc2n2cc(-c3ccc(C)cc3)nc12 | -17
73 | Cc1cccc(C(=O)NNC(=O)c2ccco2)c1O | -6.6
74 | COc1ccc(OC)c(N=CC2=C(O)CC(C)(C)CC2=O)c1 | 1.8
75 | Cc1ccc2oc(-c3ccc(NC(=O)c4ccc(Br)o4)c(C)c3)nc2c1 | -5.7
76 | CS(=O)(=O)N(CC(=O)N1CCOCC1)c1cc(Cl)cc(Cl)c1 | 6.9
77 | Cc1ccccc1NC(=O)C1CC(=O)N(c2ccc(Cl)cc2)C1 (stereo not given) | 3.3
78 | c1ccc2sc(SCCCN3CCCCC3)nc2c1 | 2.7
79 | CC(=O)Nc1ccc(S(=O)(=O)NCCSc2ccc(C)cc2)cc1 | -0.6
80 | O=C(O)CCC(=O)N1N=C(c2c(-c3ccccc3)c3cc(Cl)ccc3[nH]c2=O)CC1c1ccc([N+](=O)[O-])cc1 (stereo not given) | 10.3
81 | COc1ccccc1N1CCN(C2CC(=O)N(c3cc(Cl)cc(Cl)c3)C2=O)CC1 (stereo not given) | 12
82 | CCN(CC)C(=O)c1ccccc1Br | 47.2
83 | O=C(NNC(=O)c1cc([N+](=O)[O-])ccc1Cl)c1ccc([N+](=O)[O-])cc1 | -4.8
84 | Cc1ccc2nsnc2c1NC(=O)c1ccc(-c2cc(Cl)ccc2Cl)o1 | -1.5
85 | O=C(Nc1ccc(Cl)cc1)c1ccc(-c2cccc(Cl)c2)o1 | -3.3
86 | COCCCNC(=O)CN(c1cccc(C(F)(F)F)c1)S(C)(=O)=O | 0.1
87 | CCCC(=O)Nc1ccc2nn(-c3ccc(C)c(Cl)c3)nc2c1 | 3.6
88 | CNC(=O)COc1ccc(C23CC4CC(CC(C4)C2)C3)cc1 | 1.4

Row | Compound | displacement [%]
89 | CC(=O)N1C(Nc2ccccc2)CC(C)N1c1ccccc1 (stereo not given) | 4.3
90 | CCOC(=O)C1=C(O)/C(=C/c2ccc(OC)c(OC)c2)SC1=Nc1ccc(Cl)cc1 | -9.2
91 | CC(NC(=O)c1cccc(F)c1)C1CC1 (stereo not given) | -2.7
92 | Cc1ccc(C(=O)NC2CC(C)(C)NC(C)(C)C2)cc1 | -12.3
93 | CCC(=O)N1CCN(c2cc(N3CCOCC3)c(F)cc2[N+](=O)[O-])CC1 | -4.2
94 | CN(C)c1ccc(-c2ncnn2-c2sc3c(c2C#N)CCCC3)cc1 | 3.1
95 | COC(=O)c1sc(NC(=O)CCCOc2ccc(Cl)cc2Cl)c(C(=O)OC)c1C | -6.1
96 | CCOC(=O)C1=C(C)N=c2s/c(=C\c3ccccc3O)c(=O)n2C1c1cccc(OC)c1 (stereo not given) | -0.9
97 | COc1ccc(C)cc1NC(=O)c1cc(OC)c(OC)c(OC)c1 | -7.2
98 | COc1ccc(OC)c(NC(=S)NC(NC(=O)c2cc(OC)c(OC)c(OC)c2)C(Cl)(Cl)Cl)c1 (stereo not given) | 8
99 | Cc1n[nH]c(C)c1Sc1ccccc1N=Cc1ccccc1O | 0.7
100 | COc1ccccc1N1CCN(/N=C\C=C\c2ccccc2)CC1 | -8.1
101 | COc1ccc(CNc2cccc(SC)c2)c(OC)c1 | 16.4
102 | O=S(=O)(NCCCNS(=O)(=O)c1ccc(Cl)cc1)c1ccc(Cl)cc1 | -1.5
103 | CC(=O)c1ccc(NC(=O)c2c(Cl)cccc2Cl)cc1 | 10.6
104 | O=S(=O)(c1ccc(Cl)c(Cl)c1)N1CCN(c2ccccc2)CC1 | -4.7
105 | CCOc1ccccc1N(CC(=O)Nc1ccc(C)cc1C)S(=O)(=O)c1ccccc1 | -1
106 | CCOC(=O)C1=C(C)N(C)C(=O)NC1c1ccc2c(c1)OCO2 (stereo not given) | -3.5
107 | Cc1c(NC(=O)c2ccc(OCC(C)C)cc2)cccc1-c1nc2ncccc2o1 | 1.5
108 | CCOC(=O)C1=C(C)NC(=S)NC1c1ccc(OC(=O)c2ccco2)cc1 (stereo not given) | 11.7
109 | CC(C)(C)c1ccc(/C=C/C(=O)NCc2ccccc2)cc1 | -8.7
110 | Cc1ccnc(NC(=O)c2ccc(C)o2)c1 | -3.2
